Reference: patent US11766479 (ZHEJIANG SHIMAI PHARMACEUTICAL, dated 2023)

How the values were obtained:
recombinant human CD3 = recombinant human CD3 (human); assay: ELISA, human CD3 coated
Procedure: (§1) ELISA was performed according to standard protocols, to determine binding affinity of anti-ENPP3 3A10 mAb to recombinant human ENPP3 (AcroBiosystems). Briefly, recombinant human ENPP3 was coated on Corning EIA/RIA high-binding 96-well plates (Corning Inc.) at 100 ng per well overnight at 4° C. and blocked with 3% nonfat milk in PBS (pH7.4). Five-fold serially diluted antibodies were added and incubated at 37° C. for 1 h. The plates were washed with PBS containing 0.05% TWEEN® 20. Bound antibodies were detected by anti-human IgG (Fc-specific)-peroxidase antibody (Sigma). The assay was developed at room temperature with TMB substrate (Solarbio) and monitored at 450 nm with a microplate reader. The half-maximal binding ($EC50$) was calculated by fitting the data to the Langmuir adsorption isotherm.
(§2) To determine binding affinity of the bispecific antibody CMD016 to both ENPP3 and CD3, ELISA experiments were performed as described in Example 3, with the coating proteins of human ENPP3 or human CD3.

[1] = molecular target: T1, recombinant human ENPP3 (full-length extracellular domain) (human, UniProt O14638 31-875); assay: ELISA, human ENPP3 coated
T1 construct: extracellular domain; Bought protein; also called Human ENPP3 (CD203c) protein
T1 sequence (looked up): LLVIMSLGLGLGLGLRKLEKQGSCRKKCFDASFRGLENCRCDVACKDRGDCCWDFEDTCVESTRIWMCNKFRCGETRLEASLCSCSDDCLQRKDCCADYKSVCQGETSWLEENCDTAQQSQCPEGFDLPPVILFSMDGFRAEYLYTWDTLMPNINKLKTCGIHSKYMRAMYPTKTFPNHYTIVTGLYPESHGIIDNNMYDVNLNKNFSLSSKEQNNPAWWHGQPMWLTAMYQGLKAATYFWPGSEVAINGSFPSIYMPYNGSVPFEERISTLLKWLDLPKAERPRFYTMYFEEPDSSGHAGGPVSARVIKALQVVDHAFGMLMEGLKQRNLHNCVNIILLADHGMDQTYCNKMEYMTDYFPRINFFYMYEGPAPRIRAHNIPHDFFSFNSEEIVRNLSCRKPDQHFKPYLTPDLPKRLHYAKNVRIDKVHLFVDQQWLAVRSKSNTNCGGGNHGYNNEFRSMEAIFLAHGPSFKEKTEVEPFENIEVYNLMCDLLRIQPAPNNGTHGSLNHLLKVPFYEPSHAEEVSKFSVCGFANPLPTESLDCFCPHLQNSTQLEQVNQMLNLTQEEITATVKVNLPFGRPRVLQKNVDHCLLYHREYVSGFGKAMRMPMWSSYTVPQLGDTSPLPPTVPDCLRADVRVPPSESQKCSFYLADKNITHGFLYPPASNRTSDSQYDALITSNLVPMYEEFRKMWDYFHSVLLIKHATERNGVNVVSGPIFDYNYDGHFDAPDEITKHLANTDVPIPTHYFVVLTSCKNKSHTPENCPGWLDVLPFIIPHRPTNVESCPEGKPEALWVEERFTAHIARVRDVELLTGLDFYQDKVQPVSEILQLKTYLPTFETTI
Procedure: as §1, §2

Chain of recombinant human CD3 (P07766 23-126): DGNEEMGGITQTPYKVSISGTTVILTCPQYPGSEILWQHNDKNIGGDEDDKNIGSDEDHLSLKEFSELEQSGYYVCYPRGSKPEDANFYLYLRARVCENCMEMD

B1: CMD016 (3A10-based ENPP3xCD3 HBiTE) (bispecific antibody)
heavy: EVQLVESGGGLVKPGGSLRLSCAASGFTFSNAWMSWVRQAPGKGLEWVSYISSSGSTIYYADSVKGRFTISRDNAKNSLYLQMNSLRAEDTAVYYCARLAGPYYFDYWGQGTLVTVSSGSGGSGGGGSGGGGSEVQLVESGGGLVQPGGSLRLSCAASGFTFNTYAMNWVRQAPGKGLEWVARIRSKYNNYATYYADSVKGRFTISRDDSKNTLYLQMNSLRAEDTAVYYCARHGNFGSSYVSYFAYWGQGTTVTVSSASTKGPSVFPLAPSSKSTSGGTAALGCLVKDYFPEPVTVSWNSGALTSGVHTFPAVLQSSGLYSLSSVVTVPSSSLGTQTYICNVNHKPSNTKVDKKVEPKS[human IgG1 Fc with T366L Y407H (EU numbers) left out here]
light: QSVVTQPPSVSAAPGQKVTISCSGSSSNIGNNYVSWYQQLPGTAPKLLIYDNNKRPSGIPDRFSGSKSGTSATLGIDGLRTGDEAEYFCGVWDSSLRAELFAGGTKVTVLGSGGGGSGGGGSEIVVTQSPATLSVSPGERATLSCRSSTGAVTTSNYANWVQQKPGQAPRGLIGGANKRAPGVPARFSGSLSGDEATLTISSLQSEDFAVYYCALWYSNLWVFGQGTKLEIKRTVAAPSVFIFPPSDEQLKSGTASVVCLLNNFYPREAKVQWKVDNALQSGNSQESVTEQDSKDSTYSLSSTLTLSKADYEKHKVYACEVTHQGLSSPVTKSFNRGE[human IgG1 Fc with T366L Y407H (EU numbers) left out here]
notes: Heterodimer of one light and one heavy chain (about 120 kDa non-reduced); Light chain: anti-ENPP3 VL, linker, anti-CD3 hSP34 VL-CL, mFc7.2; Heavy chain: anti-ENPP3 VH, linker, anti-CD3 VH-CH1, mFc7.2; also called 3A10-based ENPP3×CD3 HBiTE; bispecific antibody targeting ENPP3 and CD3
For B1, the EC50 (recombinant human CD3) was 5.28 nM and the EC50 [1] was 2.29 nM.
